Marks after values point to notes of the source that are not given here.
Columns and labels:
[1] = Aqueous solubility test (vortexing in water); format: physicochemical; settings: thermodynamic from solid, determined, 25 °C, 1 atm
Description: Aqueous solubility (S) test of the 17 ingredients was performed by vortexing 10 mg of each ingredient in […] water in a test tube at ambient temperature and 1 atm. After vortexing for 5 min, if the solution is clear, the tested object will be considered as soluble in water. In silico assessment of the physicochemical properties governing permeation and intestinal absorption was carried out for the 17 ingredients studied. Theory aqueous solubility (S) was calculated with ALOGPS 2.1 online software via the Virtual Computational Chemistry Laboratory service (Chemoinformatics Group, Neuherberg, Germany) (VCCLAB^1). The octanol–water partition coefficient (cLogP), the total hydrogen bond count (donors and acceptors), and topological polar surface area (TPSA) were determined using the Molinspiration Property Calculator (Molinspiration Cheminformatics, Bratislava, Slovak Republic^2). Lipinski’s rule of 5 was used to predict the permeability of the compound ([Lipinski et al., 2001]).

Caco-2 cell monolayers = settings: ref Lu et al., 2008, Liu et al., 2009, Hu et al., 2014, Bowles et al., 2017, cited from earlier work
[2] = Stability tests in rat plasma (QC samples, HPLC-MS); settings: n=5
[3] = Multiple component PK study in rat plasma after p.o. GDDP (HPLC-MS); settings: for AUC(0-inf) / AUC(0-t) / MRT inf / MRT last / Tmax / Cmax / half-life: Sprague-Dawley, rat, plasma, po
[4] = system: isoprenaline-induced MI in mice; assay: In vivo anti-MI study: isoprenaline-induced myocardial injury (ECG, H&E histology)
[5] = Caco-2 cell monolayers, from literature
[6] = 24h in auto-sampler vials, spiked 2 ng/mL
[7] = 24h in auto-sampler vials, spiked 400 ng/mL
[8] = 24h in auto-sampler vials, spiked 1600 ng/mL
[9] = Placing plasma for 6h at 4°C, spiked 2 ng/mL
[10] = Placing plasma for 6h at 4°C, spiked 400 ng/mL
[11] = Placing plasma for 6h at 4°C, spiked 1600 ng/mL
[12] = three freeze-thaw cycles, rat plasma, spiked 2 ng/mL
[13] = three freeze-thaw cycles, rat plasma, spiked 400 ng/mL

CC(C)=CCC[C@](C)(O[C@@H]1O[C@H](CO)[C@@H](O)[C@H](O)[C@H]1O)[C@H]1CC[C@]2(C)[C@@H]1[C@H](O)C[C@@H]1[C@@]3(C)CC[C@H](O)C(C)(C)[C@@H]3[C@@H](O[C@@H]3O[C@H](CO)[C@@H](O)[C@H](O)[C@H]3O)C[C@]12C [Rg1, ginsenoside Rg1]
solubility at 5 min [1]: > 10000 µg/mL
Papp(apical→basolateral) (Caco-2 cell monolayers; [5]): > 0.1^c ×10^-6 cm/s
Papp(basolateral→apical) (Caco-2 cell monolayers; [5]): > 0.1^c ×10^-6 cm/s
apparent permeability in Caco-2 cell monolayers (Caco-2 cell monolayers; previous results): > 10^-7 cm/s
Stability: Measured [2, 6]: 1.69 ± 0.24 ng/mL
Stability: RE [2, 6]: -15.63%
Stability: Measured [2, 7]: 433.65 ± 26.28 ng/mL
Stability: RE [2, 7]: 8.41%
Stability: Measured [2, 8]: 1628.29 ± 28.27 ng/mL
Stability: RE [2, 8]: 1.77%
Stability: Measured [2, 9]: 1.75 ± 0.30 ng/mL
Stability: RE [2, 9]: -12.46%
Stability: Measured [2, 10]: 457.68 ± 22.23 ng/mL
Stability: RE [2, 10]: 14.42%
Stability: Measured [2, 11]: 1841.18 ± 22.14 ng/mL
Stability: RE [2, 11]: 15.07%
Stability: Measured [2, 12]: 1.75 ± 0.23 ng/mL
Stability: RE [2, 12]: -12.60%
Stability: Measured [2, 13]: 456.97 ± 15.97 ng/mL
Stability: RE [2, 13]: 14.24%
determination in rat plasma at the planned successive PK time points ([3]; GDDP 0.8 g/kg p.o., 5, 10, 15, 30, 45, 60, and 120 min, LOQ 1.0–1.4 ng/mL): could be determined
detection in rat plasma ([3]; GDDP 0.8 g/kg p.o., at 5, 10, 15, 30, 45, or 60 min, LOD 0.5–0.7 ng/mL): could be detected
AUC(0-inf) ([3]; 0.4 g/kg): 82.7 ± 21.2 ng·h/mL
AUC(0-t) ([3]; 0.4 g/kg): 50.6 ± 2.59 ng·h/mL
MRT inf ([3]; 0.4 g/kg): 4.07 ± 2.07 h
MRT last ([3]; 0.4 g/kg): 1.88 ± 0.05 h
Tmax ([3]; 0.4 g/kg): 0.38 ± 0.18 h
Cmax ([3]; 0.4 g/kg, Cmax, rat plasma, GDDP 0.4 g/kg p.o. (Low dose group), n=3): 25.5 ± 2.85 ng/mL
AUC(0-inf) ([3]; 0.8 g/kg): 60.9 ± 6.56 ng·h/mL
AUC(0-t) ([3]; 0.8 g/kg): 54.7 ± 8.97 ng·h/mL
MRT inf ([3]; 0.8 g/kg): 1.75 ± 0.43 h
MRT last ([3]; 0.8 g/kg): 1.35 ± 0.23 h
Tmax ([3]; 0.8 g/kg): 0.09 ± 0.13 h
Cmax ([3]; 0.8 g/kg, Cmax (high / low plasma drug concentrations), rats, GDDP 0.4 and 0.8 g/kg p.o., classification): > 20 ng/mL
Cmax ([3]; 0.8 g/kg, Cmax, rat plasma, GDDP 0.8 g/kg p.o. (High dose group), n=3): 52.9 ± 25.3 ng/mL
half-life ([3]; 0.8 g/kg, t1/2 β (fast / slow elimination type), rats, GDDP 0.4 and 0.8 g/kg p.o., classification): < 2 h
half-life ([3]; 0.8 g/kg, t1/2 β, rat plasma, GDDP 0.8 g/kg p.o. (High dose group), n=3): 0.88 ± 0.38 h
Cltot ([3]; rat plasma, GDDP 0.4 g/kg p.o. (Low dose group), n=3): 510 ± 131 mL/min/kg
Cltot ([3]; rat plasma, GDDP 0.8 g/kg p.o. (High dose group), n=3): 1350 ± 141 mL/min/kg
ST segment elevations on the seventh day of the trial ([4]; 40 mg/kg p.o. for 7 days, compared with model group, P < 0.05): significantly decreased
anti-MI effect (overall conclusion) ([4]; 40 mg/kg p.o. for 7 days, isoprenaline-induced MI): favorable anti-MI effect
ECG (lead II) findings on the fifth day of the trial ([4]; 40 mg/kg p.o., isoprenaline 5 mg/kg on days 4 and 5): T waves reversed or decreased

From publication PMC6308302, “Identification of Pharmacokinetic Markers for Guanxin Danshen Drop Pills in Rats by Combination of Pharmacokinetics, Systems Pharmacology, and Pharmacodynamic Assays” (Frontiers in Pharmacology, 2018)
